{"source": "PubChem BioAssay AID1347120", "about": "(National Center for Advancing Translational Sciences (NCATS), 2019)", "note": "The whole screen tested about 390,000 compounds, of which about 930 (0.24%) were called active. The shares of active, inactive and inconclusive entries below differ from those in the screen. The call rests on the fitted dose curve; in most records, active means well fitted activation curve with a large enough effect; inconclusive means small, poorly fitted or top-dose-only effect; inactive means no such curve, though single readings can be large or run the other way. Potencies beside an inconclusive call are fits to weak or partial responses and may not hold up. Square brackets hold non-standard residues; d marks the D form. Peptide text beside a SMILES is read from it. * marks the point of attachment. ξ: configuration not given here. ξY = NC(Cc1ccc(O)cc1)C(=O)O; Cbz = O=C(OCc1ccccc1)*; OtBu = CC(C)(C)O*; tBu = CC(C)(C)*", "data": [{"test": "qHTS for Suppressors of FUS Proteinopathy: Primary screen using FUS-linked yeast assay; further: nearly all actives have a fitted effect of over 55% in size; further: potency means the concentration at half of the fitted maximal effect; tags describe the fitted curve by direction and shape;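 on growth rescue (activation): plate controls were DMSO vehicle for no effect and reference control for full effect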", "conditions": "S. cerevisiae FUS-expressing, OD600, 24 h; Potency: growth rescue; growth rescue (activation): at 76.6 µM (top of the series)", "method_in_brief": "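Restored growth of FUS-toxic S. cerevisiae, read as 600 nm absorbance after 24 h at 30C in galactose medium (starting OD 0.005). Controls CP55940 and DMSO.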", "values": [{"compound": "CCN(CC)S(=O)(=O)c1ccc2c(c1)N(CC(=O)Nc1ccccc1F)C(=O)C1CCCN21", "note": "(stereo unspecified)", "Potency": "inconclusive: 28.2 µM [activator, single point]"}, {"compound": "Cc1ccc(C(=O)Nc2cc(Cl)ccc2-n2cncn2)s1", "growth rescue (activation)": "inactive: 18.1%"}, {"compound": "CCCCCCCCN1C(=O)[C@H](CC(=O)NCCCOC)C[C@@]2(C(=O)OC)CC(C)(C)CC=C12", "Potency": "inconclusive: 31.6 µM [activator, partial curve, poor fit]"}, {"compound": "COc1ccc2[nH]c(C)c(CCN(Cc3cccs3)C(=S)Nc3ccccc3)c2c1", "Potency": "inconclusive: 35.5 µM [activator, single point]"}, {"compound": "COC(=O)c1c(NC(=O)c2ccc(S(=O)(=O)N3CCC(C)CC3)cc2)sc2c1CCN(C)C2", "Potency": "inconclusive: 44.7 µM [activator, single point]"}, {"compound": "COc1cc2ccccc2cc1C(=O)Nc1cccc(-c2nc3cc(C)c(C)cc3o2)c1", "growth rescue (activation)": "inactive: -19.3%"}, {"compound": "Cc1ccc2c(c1)N(C(=O)CCC(=O)N1CCN(c3cccc(C)c3C)CC1)CCO2", "Potency": "inconclusive: 28.2 µM [activator, single point]"}, {"compound": "CCCCn1nnnc1C(c1cc2ccccc2o1)N1CCN(C(=O)OC(C)(C)C)CC1", "note": "(stereo unspecified)", "growth rescue (activation)": "inactive: 40.2%"}, {"compound": "CN(C(=O)c1cccc(NC(=O)Cc2ccc(NC(=O)C3CCCN(C(=O)C4CCCC4)C3)cc2)c1)C1CCC1", "note": "(stereo unspecified)", "Potency": "inconclusive: 44.7 µM [activator, single point]"}, {"compound": "Cc1cc(C)c(OCC(=O)Nc2ccccc2N2CCOCC2)c(C)c1", "Potency": "inconclusive: 44.7 µM [activator, single point]"}, {"compound": "Cc1cc(C)c(NC(=O)C2CCN(c3nc4ccccc4n4cccc34)CC2)c(C)c1", "Potency": "inconclusive: 35.5 µM [activator, partial curve, poor fit]"}, {"compound": "CCc1ccc(NC(=O)c2cnn(-c3ccccc3)c2-n2cccc2)cc1", "growth rescue (activation)": "inactive: 9.7%"}, {"compound": "N#Cc1ccc(C2=CC(=O)C[C@H](c3ccc(F)cc3)C2)cc1", "growth rescue (activation)": "inactive: 25.7%"}, {"compound": "O=C(CC1N=C2c3ccccc3N=C(SCc3ccc(F)cc3)N2C1=O)NCc1ccc2c(c1)OCO2", "note": "(stereo unspecified)", "Potency": "inconclusive: 50.1 µM [activator, single point]"}, {"compound": "CC[C@]12c3[nH]c4ccc(OC)cc4c3CCN1C(=O)C(CC(=O)NC/C=C(\\C)CCC=C(C)C)C[C@@H]2C(=O)N1CCN(C(=O)C2CC2)CC1", "note": "(stereo partly specified)", "Potency": "inconclusive: 22.4 µM [activator, partial curve, poor fit]"}, {"compound": "Cc1ccc(C(=O)C2=C(O)C(=O)N(Cc3ccco3)C2c2cccc(Cl)c2)o1", "note": "(stereo unspecified)", "Potency": "inconclusive: 35.5 µM [activator, single point]"}, {"compound": "O=C(NCc1ccc2c(c1)OCO2)c1ccc2c(c1)S(=O)(=O)c1ccccc1C2=O", "Potency": "inconclusive: 20 µM [activator, partial curve, poor fit]"}, {"compound": "C#CCNC(=O)C1=C[C@H](c2cn(C(C)=O)c3ccccc23)C[C@H](OCc2ccc(CO)cc2)O1", "Potency": "inconclusive: 12.6 µM [activator, partial curve]"}, {"compound": "COc1ccc(C2c3cc(OC)c(OC)cc3CC(=O)N2c2ccc(C)cc2)cc1", "note": "(stereo unspecified)", "Potency": "inconclusive: 35.5 µM [activator, single point]"}, {"compound": "CCOC(=O)C1(c2csc(N)n2)COC(=O)C1", "note": "(stereo unspecified)", "growth rescue (activation)": "inconclusive: 65.3% [activator]"}, {"compound": "COc1ccc(C(=O)OCC(=O)NC23CC4CC(CC(C4)C2)C3)c(O)c1", "Potency": "inconclusive: 17.8 µM [activator, partial curve]"}, {"compound": "COc1ccccc1OCC(=O)Nc1cc(NC(=O)COc2ccccc2OC)cc(C(=O)O)c1", "Potency": "inconclusive: 39.8 µM [activator, single point]"}, {"compound": "CCc1ccc(-c2c(C)sc(NC(C)=O)c2C(N)=O)cc1", "growth rescue (activation)": "inactive: 22.7%"}, {"compound": "Cc1cc(C)c2nc(N3CCC(C(=O)NCCN4CCOCC4)CC3)sc2c1", "Potency": "inconclusive: 3.16 µM [activator, partial curve, poor fit]"}, {"compound": "CC1(C(=O)Nc2ccc(Cl)c(C(F)(F)F)c2)Cc2c(-c3ccc4c(c3)OCO4)ccnc2O1", "note": "(stereo unspecified)", "Potency": "inconclusive: 10 µM [activator, partial curve]"}, {"compound": "COc1ccc(-n2c(SCC(=O)Nc3ccc(C(=O)O)cc3)nnc2-c2cccs2)cc1", "Potency": "inconclusive: 14.1 µM [activator, partial curve, poor fit]"}, {"compound": "COc1ccc(-c2ccc(CN3C(C(C)C)C(=O)N(Cc4cn(CC5CCCCC5)nn4)CCS3(=O)=O)cc2)cn1", "note": "(stereo unspecified)", "Potency": "inconclusive: 50.1 µM [activator, single point]"}, {"compound": "CC(C)(C)OC(=O)C(Cc1ccc(OC(C)(C)C)cc1)NC(=O)CNC(=O)CNC(=O)OCc1ccccc1", "note": "(stereo not drawn) (Cbz-Gly-Gly-[ξY](tBu)-OtBu)", "Potency": "inconclusive: 20 µM [activator, partial curve, poor fit]"}, {"compound": "COc1ccc(-c2cn(-c3ccc(C)cc3)c(=O)n2CC(=O)Nc2ccc(OC)cc2OC)cc1", "Potency": "inconclusive: 50.1 µM [activator, single point]"}, {"compound": "Cc1ccccc1NC(=O)/C(=C/c1ccccc1)c1ccccc1", "growth rescue (activation)": "inactive: -2.12%"}, {"compound": "CCOC(=O)CC(NC(=O)CCc1c(C)nc2c(-c3ccccc3)c(C)nn2c1C)c1ccc(OC(C)C)cc1", "note": "(stereo unspecified)", "Potency": "inconclusive: 15.8 µM [activator, single point]"}, {"compound": "CC(C)NC(=S)N/N=C1\\CCCCc2ccccc21", "growth rescue (activation)": "inactive: 16.6%"}, {"compound": "CC(=O)c1ccc(OCCCC(=O)Nc2cc(S(=O)(=O)N3CCCCC3)ccc2C)cc1", "Potency": "inconclusive: 39.8 µM [activator, single point]"}, {"compound": "COc1cccc(NC(=O)COC(=O)c2cc(S(=O)(=O)N3CCOCC3)ccc2C)c1", "growth rescue (activation)": "inactive: 21.2%"}, {"compound": "COc1ccc2cc(C(=O)N3CCN(c4ccccc4OC)CC3)[nH]c2c1", "Potency": "inconclusive: 28.2 µM [activator, single point]"}, {"compound": "COC(=O)[C@]12C[C@H](CC(=O)N3CCSCC3)C(=O)N(Cc3cccc4ccccc34)C1=C[C@H](COCc1ccccc1)O[C@@H]2C", "Potency": "inconclusive: 35.5 µM [activator, single point]"}, {"compound": "Cc1ccc(C2OC34CCCCCC3C(C#N)(C(=N)O4)C2(C#N)C#N)cc1", "note": "(stereo unspecified)", "growth rescue (activation)": "inactive: 34.5%"}, {"compound": "COc1ccc(NC(=O)C2CCN(S(=O)(=O)c3cccc(-c4noc(C)n4)c3)CC2)cc1OC", "growth rescue (activation)": "inactive: 36.1%"}, {"compound": "Cc1nnc(NC(=O)CCC(=O)NCc2cccs2)s1", "growth rescue (activation)": "inconclusive: 69.3% [activator]"}, {"compound": "CC(C)c1ccc(CN(C(=O)c2cc3ccccc3oc2=O)C2CCS(=O)(=O)C2)cc1", "note": "(stereo unspecified)", "Potency": "inconclusive: 39.8 µM [activator, single point]"}, {"compound": "COc1ccc(CN2CCN(C(C)C(=O)N(C)Cc3cccc(F)c3)CC2)cc1OC", "note": "(stereo unspecified)", "growth rescue (activation)": "inactive: -15%"}, {"compound": "CCC(=O)Oc1ccc(C(=O)Nc2ccccc2C(=O)NCC(C)C)cc1", "Potency": "inconclusive: 3.98 µM [activator, single point]"}, {"compound": "CC(=O)c1c(C)oc2ccc(N(C(C)=O)S(=O)(=O)c3cccc4cccnc34)cc12", "Potency": "inconclusive: 50.1 µM [activator, single point]"}, {"compound": "O=C(Nc1nnc(CC2=CCCCC2)s1)Nc1ccccc1F", "growth rescue (activation)": "inactive: 10%"}, {"compound": "Cc1ccc(C)c(NC(=O)CN2CCSc3ccc(S(=O)(=O)N4CCCC4)cc32)c1", "Potency": "inconclusive: 25.1 µM [activator, partial curve, poor fit]"}, {"compound": "COc1ccccc1C1c2c(-c3ccc(Cl)cc3)n[nH]c2C(=O)N1c1ccc(C)cc1", "note": "(stereo unspecified)", "Potency": "inconclusive: 28.2 µM [activator, single point]"}, {"compound": "Cc1ccc(CNc2nc3cc(-c4ccccc4)sc3c(=O)n2C)c(C)c1", "Potency": "inconclusive: 28.2 µM [activator, partial curve, poor fit]"}, {"compound": "Cc1cc(SCC(=O)NCc2ccc(Cl)cc2)nc(=O)[nH]1", "growth rescue (activation)": "inactive: 8.07%"}, {"compound": "Cc1cc(NC(=O)/C=C\\C(=O)O)c([N+](=O)[O-])cc1C", "growth rescue (activation)": "inactive: 1.48%"}, {"compound": "Cc1ccccc1S(=O)(=O)Cc1ccc(C(=O)N2CCN(c3cccc(Cl)c3)CC2)o1", "Potency": "inconclusive: 31.6 µM [activator, partial curve]"}, {"compound": "CCOc1ncccc1C(=O)OCC(=O)NC(=O)NC(C)C", "growth rescue (activation)": "inactive: -40.4%"}, {"compound": "CCS(=O)(=O)N1Cc2ccccc2CC1C(=O)N(C)CC(=O)Nc1ccc(F)c(F)c1F", "note": "(stereo unspecified)", "growth rescue (activation)": "inactive: 12.2%"}, {"compound": "COc1ccc(C(=O)N2CC3(CC(c4cccc(NC(=O)COc5ccc(Cl)cc5)c4)=NO3)C[C@@H]2C(N)=O)cc1", "note": "(stereo partly specified)", "Potency": "active: 35.5 µM"}, {"compound": "Cc1nc(SCc2nc3ccc(C(F)(F)F)cc3[nH]2)c2oc3ccccc3c2n1", "Potency": "inconclusive: 50.1 µM [activator, single point]"}, {"compound": "Cc1nn2c(=O)cc(COC(=O)COc3ccc(F)cc3)nc2s1", "Potency": "inconclusive: 15.8 µM [activator, partial curve, poor fit]"}, {"compound": "COc1cc2sc(-c3ccc(S(C)(=O)=O)cc3)c(-c3ccc4c(c3)OCO4)c2cc1OC", "Potency": "inconclusive: 22.4 µM [activator, single point]"}, {"compound": "CC1(C)CC(=O)C(C=Nc2ccc(C(=O)c3ccccc3)cc2N=CC2=C(O)CC(C)(C)CC2=O)=C(O)C1", "Potency": "inconclusive: 17.8 µM [activator, partial curve, poor fit]"}, {"compound": "COc1ccc(C=CC(=O)C=CC=Cc2ccccc2)cc1", "Potency": "inconclusive: 35.5 µM [activator, partial curve]"}, {"compound": "CC1C/C(=N\\NC(=O)c2ccc(NS(=O)(=O)c3ccc(Br)cc3)cc2)CC(C)(C)C1", "note": "(stereo unspecified)", "Potency": "inconclusive: 7.94 µM [activator, full curve]"}, {"compound": "O=C(NCCc1ccccc1)c1ccc2c(c1)N(Cc1ccccc1)C(=O)CS2=O", "note": "(stereo unspecified)", "Potency": "inconclusive: 25.1 µM [activator, partial curve]"}, {"compound": "COC(=O)c1c(NC(=S)NN2CCN(C)CC2)sc2c1CCC(C)C2", "note": "(stereo unspecified)", "Potency": "inconclusive: 28.2 µM [activator, partial curve]"}]}]}
